Laboratory results: PubChem BioAssay AID485344 (National Center for Advancing Translational Sciences (NCATS), 2010)
Among all 340,000 compounds or so, about 6,900 (2%) were called active. No stated cut-off is given here; in the data, active means inhibition above about 30%; inactive means below that, where a call was filed. Only a part is listed here, and it is no random draw. The source gives no active or inactive call for entries shown without one.
Further: 0% is about no effect.

What follows are molecules tested against D(2) dopamine receptor (Homo sapiens) (UniProt P14416) (assay: HTS Assay for Allosteric Antagonists of the Human D2 Dopamine Receptor: Primary Screen for Antagonists). Conditions: HEK293 TREx D2 cells, calcium flux, dopamine EC80; at 10 µM; stronger effect = higher value.
UniProt P14416, sequence (P14416 whole entry, looked up): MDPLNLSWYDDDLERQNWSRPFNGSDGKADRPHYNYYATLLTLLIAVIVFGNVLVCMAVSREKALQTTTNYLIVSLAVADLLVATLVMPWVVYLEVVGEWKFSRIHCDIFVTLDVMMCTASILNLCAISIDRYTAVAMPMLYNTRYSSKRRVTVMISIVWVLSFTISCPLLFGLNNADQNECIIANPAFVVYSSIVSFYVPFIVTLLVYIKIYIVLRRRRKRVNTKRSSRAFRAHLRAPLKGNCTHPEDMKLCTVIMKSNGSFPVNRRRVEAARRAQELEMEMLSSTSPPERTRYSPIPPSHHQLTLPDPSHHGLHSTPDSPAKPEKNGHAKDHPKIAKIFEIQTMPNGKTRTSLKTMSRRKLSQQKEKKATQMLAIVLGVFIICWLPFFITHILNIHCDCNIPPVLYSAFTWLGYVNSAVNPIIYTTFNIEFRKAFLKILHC
Method in brief: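 Inhibition of EC80 dopamine-driven calcium flux, recorded kinetically, defines activity here; cells are a tetracycline-induced HEK293 T-REx line expressing force-coupled D2.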
COC(=O)c1cc2sccc2n1Cc1ccc(F)cc1Cl showed an inhibition of -11.4%. With Cc1cc(F)ccc1S(=O)(=O)Nc1cc2c(C(=O)O)c(C)oc2c2ccccc12 the inhibition was 4.37%. For Cc1c(C(=O)Nc2ccc3c(c2)OCO3)sc2nc(-c3ccccc3)cn12, the inhibition was active: 66.7%. Cc1cc(N2CCN(c3cc(Cl)ccc3C)CC2)n2nc(-c3ccccc3)nc2n1 was tested, and the inhibition was 2.85%. In the case of CCCCNC(=O)C1CCC(Cn2c(=O)c3sccc3n(CC(=O)Nc3ccccc3)c2=O)CC1 (centres undefined), the inhibition is reported as 17.7%. In the case of N#Cc1ccc(NC(=O)C2Cc3ccccc3CN2S(=O)(=O)c2ccc(F)cc2)cc1 (centres undefined), the inhibition is reported as 3.54%. In the case of CCCOC(=S)NC(=O)c1sc2ccccc2c1Cl, the inhibition is reported as active: 30.9%. O=C(COc1ccc(F)cc1)Nc1ccc2nc(SCCOc3ccccc3)sc2c1 showed an inhibition of 10.8%. O=C(CSCn1nnc2c(=O)[nH]c(Cc3ccc(F)cc3)nc21)Nc1ccccc1 was tested, and the inhibition was 10.5%. In the case of COc1ccc(NC(=O)C2=CC(c3ccc4c(c3)OCO4)=NS(=O)(=O)N2C)cc1OC, the inhibition is reported as 15.3%. Work on O=S(=O)(c1ccc(Cl)cc1)c1nc(-c2ccccc2F)oc1NCc1ccccc1 yielded an inhibition of 4.6%. Cc1ccc(Sc2ccc(N3CCC(C(=O)Nc4ccc(Cl)cc4)CC3)nn2)cc1 showed an inhibition of 13.6%. CCc1ccc(C(=O)c2cn(CC(=O)NCc3ccc(C)cc3)c3nc(C)ccc3c2=O)cc1 was tested, and the inhibition was -1.05%. For CCc1nn(CC(=O)NCCCc2ccccc2)c(=O)c2cc3cc(F)ccc3n12, the inhibition was -1%. With O=C(Nc1nc2c(F)cccc2s1)c1ccc2c(c1)OCCO2 the inhibition was -10.8%. In the case of Cc1ccc(CNC(=O)Cn2c(-c3cccs3)cc3cc(Cl)ccc32)cc1, the inhibition is reported as 6.02%. Molecule CC(=O)c1ccc(NC(=O)c2cc3c(=O)oc4ccc(C)cc4c3s2)cc1 has an inhibition of -13.2%. Work on Cc1ccc(CNC(=O)c2ccc3c(c2)NC(=O)C(CS(=O)(=O)Cc2cccc(F)c2)N3)cc1 (centres undefined) yielded an inhibition of 12.1%. Work on Cc1ccc(N2C(=O)C(CC(=O)Nc3ccc(F)cc3)N(Cc3ccc4c(c3)OCO4)C2=O)cc1 (centres undefined) yielded an inhibition of 20.9%. Molecule COc1cc([C@@H]2Nc3c(F)cccc3[C@@H]3C=CC[C@@H]32)cc(Br)c1OC has an inhibition of -3.56%. Cc1c(C(=O)O)oc2c1-c1nn(Cc3ccccc3Cl)cc1CC2 was tested, and the inhibition was -0.0492%. Work on COc1ccc2c(Sc3ccc(C)cc3)c(C(=O)NC(C)c3ccccc3)[nH]c2c1 (centres undefined) yielded an inhibition of 18.8%. In the case of Cc1ccc(NC(=O)CC(c2ccc(F)cc2)N2Cc3ccccc3C2=O)cc1C (centres undefined), the inhibition is reported as 0.968%. Work on Cc1c(C(=O)NCc2ccc(Cl)cc2)sc2nc3n(c(=O)c12)CCC3 yielded an inhibition of 19.3%. COc1ccc(-c2nc3n(n2)C(c2ccccc2)C(C(=O)Nc2cccnc2)=C(C)N3)cc1 (centres undefined) showed an inhibition of -21.5%. Work on COCCNC(=O)CN1C(=O)CCn2nc(-c3cn(C)c4ccccc34)cc21 yielded an inhibition of 0.325%. CCS(=O)(=O)N1CCc2cc(C(=O)NCc3ccc(C)cc3)ccc21 gave an inhibition of 19.6%. Work on O=C(CSc1nc2c([nH]c3ccccc32)c(=O)n1-c1ccc(F)cc1)Nc1ccc2c(c1)OCCO2 yielded an inhibition of -6.84%. Cc1cccc(-c2cc(-c3ccccc3)nc(SCC(=O)Nc3ccccc3)c2C#N)c1 showed an inhibition of 5.37%. In the case of Cc1ccc(S(=O)(=O)N(CC(O)Cn2c3ccccc3c3ccccc32)c2cccc(C(=O)NCCO)c2)cc1 (centres undefined), the inhibition is reported as 10.9%. For O=C(O)c1cnn(-c2nc(-c3cccc([N+](=O)[O-])c3)cs2)c1C(F)(F)F, the inhibition was active: 31.2%. CCC(Cn1nnc2ccccc2c1=O)NC(=O)Nc1ccccc1Cl (centres undefined) showed an inhibition of 8.08%. Cn1cccc1-c1cc2n(n1)CCC(=O)N2CC(=O)Nc1ccc(F)cc1Cl showed an inhibition of -12.9%. CCCCOc1ccc(C(=O)Nc2ccc3c(c2)N(C(C)=O)CCC3)cc1 gave an inhibition of 0.654%. CCOc1cc(CNc2ccc(O)cc2)cc(Cl)c1OCc1ccccc1 gave an inhibition of -1.74%. Molecule Cc1ccc(S(=O)(=O)N2CCCc3cc(NC(=O)c4cccc(Cl)c4)ccc32)cc1 has an inhibition of 2%. Cn1nc(-c2ccccc2F)c2cc(C(=O)N3CCN(c4ccccc4F)CC3)sc21 gave an inhibition of 8.85%. Work on CCOc1ccc(NC(=O)c2cc3nc(-c4ccc(OC)cc4)cc(C(F)(F)F)n3n2)cc1 yielded an inhibition of 10.5%. CCOC(=O)c1c(C)[nH]c(C)c1S(=O)(=O)N1CCC(C(=O)NCc2ccc(OC)cc2)CC1 was tested, and the inhibition was 0.223%. In the case of COCCCNc1nc2c(-c3cccc(Br)c3)nnn2c2ccccc12, the inhibition is reported as 14.5%. CC(=O)c1coc2ccc(OCCN3CCCCC3)cc12 was tested, and the inhibition was active: 41.8%. Molecule CCC(=O)NCc1nc2ccccc2n1Cc1ccccc1 has an inhibition of 2.94%. With CCC(Sc1nc2ncccc2[nH]1)C(=O)Nc1ccccc1F (centres undefined) the inhibition was -4.43%. COc1ccccc1NC(=O)N1CCCC1 was tested, and the inhibition was active: 33.1%. With O=C(OCC1CCCO1)c1ccc2c(c1)N(Cc1ccc(F)cc1)C(=O)c1ccccc1S2(=O)=O (centres undefined) the inhibition was -3.25%. In the case of COc1cc(OC)c(N(C)C(=O)c2cc3c(s2)-c2ccccc2OC3)cc1Cl, the inhibition is reported as 4.16%. COc1ccc2c(CNCc3cccs3)c(C(=O)O)n(Cc3ccccc3C)c2c1 gave an inhibition of 8.16%. For CCOC(=O)N1CCc2c(sc3c2c(=O)n(-c2ccccc2)c(=O)n3CC(=O)Nc2ccc(OC)cc2OC)C1, the inhibition was -7.84%. CCOc1ccc(OCC)c(NC(=O)c2cc(S(=O)(=O)N3CCCC3)cn2C)c1 gave an inhibition of -1.57%. With CCOc1ccc(NC(=O)CCc2c(C)nc3nc(C)nn3c2C)cc1 the inhibition was -0.978%. Work on COC(=O)C(CCSC)NC(=O)C1CCN(c2ncnc3c2nc2n3CCCCC2)CC1 (centres undefined) yielded an inhibition of 6.78%. Fc1ccc(-n2ncc3c(NC4CCCCCC4)ncnc32)cc1 gave an inhibition of 4.73%. Molecule CCOC(=O)c1c(NC(=O)CCCOc2ccccc2C)sc2c1CCC(C)C2 (centres undefined) has an inhibition of -3.33%. CCNC(=O)CC1C(=O)N(c2ccc(F)cc2)C(=O)N1CCOC (centres undefined) was tested, and the inhibition was -12.5%. Work on COc1ccccc1CNC(=O)c1ccc(Cn2c(SCc3ccccc3)nc3cccnc32)cc1 yielded an inhibition of 27.9%. CCOc1ccc(C(=O)N2CCC(c3nnc(-c4ccccc4OC)o3)CC2)cc1 gave an inhibition of 2.43%. CC1OC(OC2C(OC3C(O[C@H]4CC[C@]5(C)C6C=C[C@]78OC[C@@]9(CC[C@@H](C)[C@H](C)C97)[C@H](O)C[C@@]8(C)[C@]6(C)CC[C@H]5C4(C)C)OC(C)C(O)C3O)OC(CO)C(O)C2O)C(O)C(O)C1O (some centres undefined) was tested, and the inhibition was active: 31.6%. In the case of O=C(CCc1ccccc1)NCc1nc2cccnc2n1Cc1ccc(F)cc1, the inhibition is reported as -8.82%. Work on N#Cc1ccccc1CN1C(=O)c2ccccc2Sc2ccc(C(=O)OCc3ccco3)cc21 yielded an inhibition of -23.6%. CCOc1ccc(NC(=O)C(CC)n2c(=O)c(-c3ccccc3NC(C)=O)nc3ccccc32)cc1 (centres undefined) gave an inhibition of 8.74%. For Cc1ccc(CNC(=O)Cn2cc(S(=O)(=O)Cc3ccccc3Cl)c3ccccc32)cc1, the inhibition was -5.85%. In the case of COc1ccccc1OCCSc1nc(-c2ccc(C(C)(C)C)cc2)nc2cc(=O)[nH]n12, the inhibition is reported as -0.661%. O=C(CCOc1ccccc1)N(Cc1cccnc1)c1nc2c(F)cc(F)cc2s1 was tested, and the inhibition was -15.8%. With Nc1nnc(SCC(=O)Nc2ccc(Cl)cc2)s1 the inhibition was -14.8%. COc1ccc(CNC(=O)c2cnc3sc(N4CCOCC4)nn3c2=O)cc1 showed an inhibition of 15.8%. COc1cc(OC)c(NC(=O)N2CCSc3ccccc32)cc1Cl was tested, and the inhibition was 12%. For COc1ccc(C(=O)Nc2cc3c(cc2C(=O)c2ccccc2Cl)OCCO3)cc1, the inhibition was 3.03%. Work on Cc1cc(Cl)ccc1NC(=O)c1cccc(NC(=O)N2CCSc3ncccc32)c1 yielded an inhibition of -7.34%. In the case of O=C(CSC1=Nc2ccccc2C2=NC(CCC(=O)NC3CCCCC3)C(=O)N12)Nc1cccc(C(F)(F)F)c1 (centres undefined), the inhibition is reported as 3.16%. CCc1ccccc1N1CC(c2nc3ccccc3n2CCCOc2ccc(Cl)cc2)CC1=O (centres undefined) showed an inhibition of -1.64%. With COc1cc(OC)c(NC(=O)c2csc3c2CCC(C)C3)cc1Cl (centres undefined) the inhibition was -0.793%. CCOc1ccccc1NC(=O)Cn1c(=O)n(CCC(=O)NCc2ccc3c(c2)OCO3)c(=O)c2ccccc21 gave an inhibition of -6.74%. With COc1ccccc1CNC(=O)c1cc2cc3ccc(Cl)cc3nc2o1 the inhibition was -5.58%. COc1ccccc1N1CCN(c2ccc(NC(=O)c3ccc(C)cc3)cc2C(=O)O)CC1 showed an inhibition of 17.8%. Cc1c(CNC2CCCCC2)c(C(=O)O)c(C)n1Cc1c(F)cccc1Cl gave an inhibition of 2.41%. Cc1ccc(NC(=O)CCCn2c(=O)c3cccn3c3ccccc32)c(Cl)c1 was tested, and the inhibition was -2.37%. Work on Cc1cc2oc(C(=O)Nc3ccc(S(=O)(=O)N(C)Cc4ccccc4)cc3)cc(=O)c2cc1C yielded an inhibition of -9.79%. In the case of CC(C)CC(=O)Nc1nnc(S(=O)(=O)N(CC(C)C)c2ccccc2)s1, the inhibition is reported as -0.265%. Work on Cc1ccc(CNC(=O)CCC(=O)N2CC3CCCN3c3ccccc32)cc1 (centres undefined) yielded an inhibition of 24.5%. c1ccc(OCCN2CCN(C(c3ccccc3)c3ccccc3)CC2)cc1 was tested, and the inhibition was active: 46%. Cn1c(=O)c2c(ncn2CC2OCCO2)n(C)c1=O was tested, and the inhibition was active: 32%. O=C(Nc1ccc2oc(-c3cc(Br)ccc3Cl)nc2c1)c1cc2ccccc2o1 was tested, and the inhibition was 8.41%. With Cc1ccc(NC(=O)CN(C)C(=O)CSc2ncc(C(F)(F)F)cc2Cl)cc1 the inhibition was active: 93%. COc1cc(-c2cc3n(C)c(C)c(CCC(=O)O)c(=O)n3n2)cc(OC)c1OC gave an inhibition of -3.33%. For CCCn1c(CN2CCN(c3ccc(OC)cc3)CC2)nc2c1c(=O)[nH]c(=O)n2C, the inhibition was -12.5%. For O=S(=O)(Nc1cccc(-n2cnnn2)c1)c1cnc(Cl)c(Cl)c1, the inhibition was active: 34.6%. In the case of Cc1cccc(OCc2nc(CC(=O)Nc3ccc(C)c(C)c3)cs2)c1, the inhibition is reported as -5.56%. For NNC(=O)CNS(=O)(=O)c1ccc([N+](=O)[O-])cc1, the inhibition was active: 49.1%. N#Cc1ccc(S(=O)(=O)N2CCC(C(=O)N3CCN(Cc4ccc5c(c4)OCO5)CC3)CC2)cc1 was tested, and the inhibition was active: 42.6%. With Cc1ccc(N2CCN(C(=O)C3CCN(S(=O)(=O)c4ccc5c(c4)oc(=O)n5C)CC3)CC2C)cc1 (centres undefined) the inhibition was -16.4%. Cc1cc(C)c(S(=O)(=O)NCCc2cc3ccc(C)c(C)c3[nH]c2=O)c(C)c1 was tested, and the inhibition was 13.8%. CC(=O)c1ccc(NC(=O)CCc2c(C)nn(-c3ccc(N4CCOCC4)nn3)c2C)cc1 showed an inhibition of 1.61%. O=c1c2sc3ccccc3c2n(Cc2cccc(Cl)c2)c(=O)n1Cc1ccco1 showed an inhibition of 7.32%. In the case of Cc1cc(C)cc(-n2c(C)nc3cc(C(=O)O)ccc32)c1, the inhibition is reported as -6.32%.
